# Reference: PubChem BioAssay AID485344 (National Center for Advancing Translational Sciences (NCATS), 2010)
# About 6,900 (2%) of roughly 340,000 compounds were called active. Rule as the data show it: active = inhibition above about 30%; inactive = below that, where a call was filed. The entries are a selection whose mix differs from that of the whole data set. Where no call is shown, the source filed none.
# Target: D(2) dopamine receptor (Homo sapiens) (UniProt P14416)
# Assay: HTS Assay for Allosteric Antagonists of the Human D2 Dopamine Receptor: Primary Screen for Antagonists; also: 0% is about no effect
# Conditions: HEK293 TREx D2 cells, calcium flux, dopamine EC80; at 10 µM; stronger effect = higher value
# Method in brief: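 In this primary screen, negative modulation is detected by tracking calcium flux after an EC80 dopamine challenge in inducible HEK293 T-REx D2 cells preexposed to test compound for 180 s.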
# Sequence of UniProt P14416 (P14416 whole entry, looked up): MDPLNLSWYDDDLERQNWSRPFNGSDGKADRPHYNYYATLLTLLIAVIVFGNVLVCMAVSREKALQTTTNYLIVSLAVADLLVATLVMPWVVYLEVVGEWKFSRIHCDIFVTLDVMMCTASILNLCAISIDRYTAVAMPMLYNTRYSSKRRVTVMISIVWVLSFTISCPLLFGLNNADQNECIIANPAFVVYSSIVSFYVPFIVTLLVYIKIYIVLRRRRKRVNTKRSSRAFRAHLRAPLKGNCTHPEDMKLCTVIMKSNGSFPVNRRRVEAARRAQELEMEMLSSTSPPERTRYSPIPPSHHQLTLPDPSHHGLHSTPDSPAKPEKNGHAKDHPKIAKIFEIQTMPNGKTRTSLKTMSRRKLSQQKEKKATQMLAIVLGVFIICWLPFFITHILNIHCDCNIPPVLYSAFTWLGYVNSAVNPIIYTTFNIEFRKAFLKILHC
row,Structure (SMILES),inhibition
1,CSc1ncc(C(=O)NCc2cccc(Br)c2)c(-c2ccccc2)n1,-2.48%
2,COc1ccc(NC(=O)c2ccc(-n3cncn3)c([N+](=O)[O-])c2)cc1OC,active: 35.3%
3,Cc1cccc(C)c1OCc1cc(=O)n2ccsc2n1,1.3%
4,COc1cc(OC)c(NC(=O)C(C)n2nc(-c3ccc(C)c(C)c3)ccc2=O)cc1Cl (stereo not given),-1.13%
5,COc1cccc(NC(=O)CSc2nnc(NC(=O)NC3CCCCC3)s2)c1,22.4%
6,CN(C)c1ccc(-c2nc3ccccn3c2Nc2ccc3c(c2)OCCO3)cc1,8.3%
7,Cc1cccc(N2CCN(C(=O)c3c4c(nc5ccccc35)C(=O)N(C3CCCCC3)C4)CC2)c1C,-6.02%
8,COc1ccc(OC)c(NC(=O)c2cc3c(=O)n4cccc(C)c4nc3n2C)c1,7.71%
9,Cc1ccc(CC(=O)NCc2nc(-c3cccc(C)c3)no2)cc1,17.6%
10,Cc1ccc(N(C)C(=O)c2noc3c2CCCCC3)cc1C,10.2%
11,COc1cccc(NS(=O)(=O)c2ccc3[nH]cc(C(=O)N(C)Cc4ccco4)c(=O)c3c2)c1,22.4%
12,Cc1nnc(N2CCC(C(=O)NCc3cccc(Cl)c3)CC2)c2nn(-c3ccccc3)c(C)c12,11%
13,CCc1ccccc1N1CC(c2nc3ccccc3n2CCC2CCCCC2)CC1=O (stereo not given),-3.19%
14,Cn1c(=O)c2c(c3ccccc31)OC(=O)CC2c1ccccc1 (stereo not given),-5.03%
15,COc1ccc(NC(=O)c2ccc3c(=O)n4nc(Nc5ccccc5C)sc4nc3c2)cc1,-4.61%
16,O=c1c2ccccc2n2c(-c3cccc(F)c3)nnc2n1Cc1ccccc1,24.4%
17,CC(C)c1ccc(NC(=O)CSC2=Nc3ccccc3C3=NC(CC(=O)NCc4ccco4)C(=O)N23)cc1 (stereo not given),3.74%
18,CCOC(=O)N1CCN(C(=O)c2cnn(-c3cccc(C)c3)c2-n2cccc2)CC1,-5.08%
19,Cc1ccc(-n2nc(C)c(C(=O)NCCCN3CCN(c4ccccc4F)CC3)c2-n2cccc2)cc1,1.21%
20,CCOC(=O)c1cnc2c(C)cc(C)cc2c1Nc1ccc(N2CCOCC2)cc1,9.44%
21,COc1ccc(C(=O)Nc2ccc3c(c2)N(C)C(=O)c2ccccc2S3)cc1OC,18.3%
22,COc1ccc(Cn2c(C3CCCCC3)nc3c(c(=O)c4ccccc4n3C)c2=O)cc1,active: 41.9%
23,Cc1oc(-c2ccc(Cl)cc2)nc1CN1CCCC(C(=O)NCc2ccc(Cl)cc2)C1 (stereo not given),-4.45%
24,CCCOc1ccccc1C(=O)Nc1nc2c(s1)CCCC2,-8.54%

row,Structure (SMILES),inhibition
1,CN(Cc1ccccc1)C(=O)c1ccc2c(c1)N(Cc1ccc(Cl)cc1)C(=O)c1ccccc1S2=O (stereo not given),6.16%
2,CCOC(=O)C1CCN(C(=O)Cn2nc(CC)n3c(cc4occc43)c2=O)CC1,8.8%
3,Cc1ccc(NC(c2cccc(Cl)c2)c2nnc(-c3ccccc3)o2)cc1F (stereo not given),2.99%
4,Cc1cc(Cl)ccc1NS(=O)(=O)c1cc2[nH]c(=O)c(=O)[nH]c2cc1C,14.2%
5,CCCCc1nn2c(C)c(-c3ccc(OCC)cc3)nc2s1,24.6%
6,COc1ccc(CN2C(=O)c3ccccc3C2C(=O)NC2CCCCCC2)c(OC)c1 (stereo not given),14.3%
7,O=C(Cn1ncc2c3ccccc3n(Cc3cccc(Cl)c3)c2c1=O)N1CCCCC1,-3.04%
8,CCOC(=O)CNC(=O)CSc1nnc(COc2ccc(Cl)cc2)n1CC,active: 32.9%
9,COc1ccccc1NC(=O)C1=C(C)Nc2nc(SCc3ccccc3Cl)nn2C1c1cccnc1 (stereo not given),-4.08%
10,Cc1ccc(NC(=O)CN2CCN(C3CCCCC3)C(=O)C2=O)cc1C,13%
11,CCCN1C(C(=O)c2ccccc2)=C(OC(=O)C(C)(C)C)c2ccccc2S1(=O)=O,-1.09%
12,Cc1ccc2c(c1)sc1nc(=O)n(-c3cccc(Cl)c3)c(=O)n12,8.18%
13,Nc1cc(C(F)(F)F)ccc1-n1cccc1,active: 39.2%
14,Cc1ccc(-n2ncc(C(=O)N3CCN(c4cccc(C)c4C)CC3)c2C2CCNCC2)c(C)c1,2.87%
15,CCOC(=O)c1cc(-c2ccc(F)cc2)n(CCC(=O)NCc2ccc(C)cc2)c1C,20.5%
16,COc1ccc(Br)cc1CC1C(=O)Nc2ccccc21 (stereo not given),-22.2%
17,CCC(=O)N1CCc2cc(S(=O)(=O)NCCC(=O)Nc3cccc(SC)c3)ccc21,-12.8%
18,O=C(COc1ccccc1F)Nc1ccc2nc(SCc3ccccc3)sc2c1,7.26%
19,COc1ccc2oc(=O)c(-c3nc4ccc(C)cc4[nH]3)cc2c1,0.581%
20,O=C(CCCNS(=O)(=O)c1cccc2nsnc12)NCCN1CCN(c2ccccc2F)CC1,active: 78.8%
21,O=C(/C=C/c1cccc(Br)c1)NC1CCN(Cc2ccccc2)CC1,active: 71.8%
22,COc1cc2nc(NC(=O)c3ccc(S(=O)(=O)N4CCCC4)cc3)sc2cc1OC,16.6%
23,O=C(COCc1cc(-c2ccc3c(c2)OCO3)on1)N1CCN(c2cccc(C(F)(F)F)c2)CC1,-11.4%
24,CCCS(=O)(=O)c1nc(S(=O)(=O)c2ccc(C)cc2)c(NC(C)c2ccccc2)s1 (stereo not given),-7.61%

row,Structure (SMILES),inhibition
1,Cc1cccc(Cn2c(SCc3ccc(C(=O)NCc4ccccc4F)cc3)nc3cccnc32)c1,17.8%
2,Cc1ccc(-n2ccnc(NCc3cccs3)c2=O)cc1C,-0.212%
3,Cc1cc(C)c2oc(C(=O)Nc3nc4ccc(Cl)cc4s3)cc(=O)c2c1,6.87%
4,COc1cccc(NS(=O)(=O)c2ccc3[nH]cc(C(=O)NCCc4ccc(C)cc4)c(=O)c3c2)c1,-25.5%
5,CN1C(C(=O)NC(C)(C)C)=CC(c2ccc3c(c2)OCO3)=NS1(=O)=O,13.2%
6,Cn1c2ccccc2c2c(C(=O)N3CCN(c4cccc(C(F)(F)F)c4)CC3)cn(C3CCCCC3)c(=O)c21,8.64%
7,Cc1ccc(-c2cn3nc(N4CCC(C(=O)Nc5ccccc5C)CC4)sc3n2)cc1,11.6%
8,CCOc1ccccc1CNC(=O)C1CCN(Cc2cc3ccccc3n2Cc2ccccc2)CC1,18%
9,CN(C)S(=O)(=O)N(CC(=O)NCCSc1ccc(Cl)cc1)c1ccccc1,6.49%
10,CCC(C(=O)Nc1cc(OC)ccc1OC)n1nc(-c2ccccc2)c2c(c1=O)CCCC2 (stereo not given),10.4%
11,CC(=O)N1CCc2cc(CNC(=O)Nc3ccccc3C(F)(F)F)ccc21,4.33%
12,CCCN1CCCc2cc(CN(CCCN3CCOCC3)C(=O)Nc3ccc(OCC)cc3)ccc21,-25.8%
13,Cc1cccc(Cn2nnc3c(=O)[nH]c(C4CCCN(C(=O)c5ccc(C(C)(C)C)cc5)C4)nc32)c1 (stereo not given),21.4%
14,COc1ccc2c(CNC3CCC(C)CC3)c(C(=O)O)n(Cc3ccccc3)c2c1 (stereo not given),-14.5%
15,COc1ccccc1C(=O)NCCc1csc(-c2ccc(C(F)(F)F)cc2)n1,-6.37%
16,COc1cc(NC(=O)Cn2c(=O)n(CC3CCCO3)c(=O)c3cc(OC)c(OC)cc32)cc(OC)c1 (stereo not given),-1.08%
17,CCOc1ccccc1N1CCN(C(=O)NCc2ccc(C)cc2)CC1,active: 30.3%
18,CCOCCc1nn2c(=O)cc(COC(=O)c3ccc(NC(=O)c4ccc(F)cc4)cc3)nc2s1,18.1%
19,CCc1ccc(C2CC(=O)N(c3cccc(C(F)(F)F)c3)C3=C2C(=O)OC3)cc1 (stereo not given),0.412%
20,Cc1ccc(C)c(NC2=C(c3ccc(C(F)(F)F)cc3)C(=O)c3ccccc32)c1,5.31%
21,CCn1c(=O)c(C(=O)Nc2cc(OC)c(OC)c(OC)c2)nc2ccccc21,7.77%
22,COc1ccc(C2CC(=O)c3cc(-c4nc(-c5cccc([N+](=O)[O-])c5)cs4)c(=O)n(-c4ccccc4C)c3C2)cc1 (stereo not given),0.951%
23,Cc1ccc(-c2cc(NC(=O)COc3c(C)cc(C)cc3C)on2)cc1,14.2%
24,COc1ccccc1N1CCN(CC(C)N(C(=O)C2CCCCC2)c2ccccn2)CC1 (stereo not given),active: 82.1%

row,Structure (SMILES),inhibition
1,O=C(NCc1ccccc1F)c1cccc(NC(=O)N2CCSc3ncccc32)c1,-11%
2,COC(=O)c1ccc(NC(=O)c2nn(C)c3c2COc2ccccc2-3)cc1,-13.2%
3,c1ccc(SCCN2CCN(c3ccccc3)CC2)cc1,active: 60.1%
4,CCOc1ccc(OCC(=O)NCCS(=O)(=O)N2CCN(c3ccc(OC)cc3)CC2)cc1,17.5%
5,Cc1ccc(NC(=O)Cn2c(=O)n(CCc3ccccc3)c(=O)c3sc4ccccc4c32)cc1C,-2.15%
6,Cc1nn(CCCC(=O)NCCc2ccc(Cl)cc2)c(=O)c2nn(-c3ccccc3)c(C)c12,-1.09%
7,O=C(NCc1cccc(Cl)c1)c1oc(=O)c2ccccc2c1-c1ccccc1,-11.1%
8,COc1ccccc1CNS(=O)(=O)c1cc(-c2cc(C)no2)ccc1C,7%
9,COc1ccc(CNC(=O)CCc2nc3cccnc3n2Cc2ccc(OC)cc2)cc1,16%
10,CCCCOc1ccc(Cn2c(=O)oc3ccccc32)cc1,3.1%
11,O=C(Cn1cc(S(=O)(=O)Cc2cccc(Cl)c2)c2ccccc21)Nc1ccc(F)c(Cl)c1,-9.19%
12,Cc1ccccc1Cc1c(C)nc2c(-c3ccccc3)c(C)[nH]n2c1=O,-7.42%
13,O=C(COc1ccccc1)NCCc1csc(-c2ccc(F)cc2)n1,10.6%
14,CN(C(=O)Cn1c(=O)n(Cc2ccc(C(=O)NCc3ccc4c(c3)OCO4)cc2)c(=O)c2ccccc21)c1ccccc1,-8.96%
15,Cc1ccc(CNC(=O)C2CCCN(c3nc4c(C)cc(C)cc4s3)C2)cc1 (stereo not given),-4.28%
16,CC(=O)c1cccc(Nc2cc(C)nc3nc(-c4ccccc4C)nn23)c1,-5.93%
17,COC(=O)c1ccccc1NC(=O)CCn1nc(C)c2c(C)n(-c3ccccc3)nc2c1=O,11%
18,Cc1ccc(OCCSc2nc3ccccc3n2CC(=O)N2CCCCC2)cc1C,1.45%
19,COC(=O)c1ccccc1NC(=O)Cn1ncc2c(C)n(Cc3ccc(F)cc3)c(C)c2c1=O,-6.78%
20,Cc1sc(NC(=O)c2ccco2)c(CN2CCN(c3ccccn3)CC2)c1C,active: 124%
21,CCOc1ccc(CNC(=O)CN2C(=O)CSc3ccc(S(=O)(=O)N4CCOCC4)cc32)cc1OC,10.7%
22,O=C(NCc1ccc(Cl)cc1)C1(c2cccs2)CCOCC1,-13.1%
23,O=C(CCCCn1c(=O)c2ccccc2n(Cc2ccccc2F)c1=O)NCc1ccc2c(c1)OCO2,15.8%
